In the supplement of paper PMC3334620:
The full ranking holds about 33,000 sequences; the median of “E-score (-0.5 to 0.5)” is about -0.016, and the highest 2% start at about 0.32. This is one part of the list.

Each sequence was assayed against T1, Stp1 (UniProt B3LFK1) (assay: PBM E-score (8-mer binding enrichment) (E-score (-0.5 to 0.5)); higher = stronger / more preferred TF binding; most listed sequences are background and not binding sites). Conditions: protein concentration: 200 nM; construct: GST-full length.
T1 sequence: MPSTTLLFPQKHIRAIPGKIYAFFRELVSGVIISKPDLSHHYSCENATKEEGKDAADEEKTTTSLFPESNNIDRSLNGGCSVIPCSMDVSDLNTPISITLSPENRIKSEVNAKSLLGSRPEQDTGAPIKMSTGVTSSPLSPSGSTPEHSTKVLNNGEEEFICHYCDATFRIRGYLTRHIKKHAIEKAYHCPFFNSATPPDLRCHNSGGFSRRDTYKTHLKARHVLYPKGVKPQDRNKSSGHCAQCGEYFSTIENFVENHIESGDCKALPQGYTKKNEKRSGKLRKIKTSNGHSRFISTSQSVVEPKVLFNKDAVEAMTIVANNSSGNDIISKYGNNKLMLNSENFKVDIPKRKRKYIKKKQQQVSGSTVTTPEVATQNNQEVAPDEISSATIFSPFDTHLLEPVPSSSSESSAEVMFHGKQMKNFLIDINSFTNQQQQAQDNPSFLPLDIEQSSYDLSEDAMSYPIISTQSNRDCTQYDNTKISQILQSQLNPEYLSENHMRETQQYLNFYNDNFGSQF
Procedure: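 Universal 'all 10-mer' protein binding microarrays (Agilent AMADID 015681) probed with GST-tagged S. cerevisiae TFs (full-length or DBD) made by in vitro transcription/translation (PURExpress), about 100-200 nM. Bound TF was detected with fluorescent anti-GST. Each ungapped 8-mer (which stands for itself and its reverse complement) is scored by the PBM enrichment score (E-score), a modified Wilcoxon-Mann-Whitney statistic from -0.5 to +0.5, computed with the Universal PBM Analysis Suite. Scale: above 0.35 generally sequence-specific binding.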

Sequence | PBM E-score
ATAGTCCA | -0.132
AGCATCAG | -0.0585
CAACAATG | 0.182
CGTTCCCA | -0.0229
CATATTTC | -0.0206
CCGATTGC | 0.12
GTGGACAC | -0.0491
CCCCATAG | -0.104
CCGTCGAA | -0.001
AAATATTA | 0.23
ACGAGGTA | -0.0774
ATCAATCC | -0.107
AGCTCAAG | -0.204
ACACTATG | -0.0259
GGGCAACC | -0.191
ACTTGTAT | -0.019
CCACCGAG | -0.0168
GCGCGAGC | 0.0786
CTATAGGC | -0.207
CTTGAAAG | -0.0964
TACCCAAA | -0.0397
CCGCAAAC | 0.133
CTAAGTCC | -0.329
GCACGCGA | 0.0767
CTCACTCC | -0.155

Sequence | PBM E-score
GGGGTGAC | -0.31
CTGAGTTC | -0.0476
AAGCAGCG | 0.128
ACAGTCGA | -0.262
AGGTAACA | 0.0444
GAATGAAC | 0.0379
GCAATCCC | -0.0402
AAAAGAAA | 0.121
GCACTACC | 0.14
GAACCCGA | -0.27
CAGAACGC | 0.0775
GCAAACAC | 0.019
CCCTCGGC | -0.14
GAGTCTCC | -0.243
CAAATCTA | 0.12
CGCGAACC | -0.0627
AAGTTTTC | 0.054
CGACAAAG | 0.119
ATTCCTGC | 0.0215
CTGTTCTC | 0.0232
AGACGAAG | -0.0314
CGACGATA | 0.00131
AAATGCAA | 0.0071
AACGTGGA | 0.0192
AAGGGAGT | -0.231

Sequence | PBM E-score
CATGAAGA | 0.0929
GTCCTATA | -0.108
ACGACTTG | -0.121
GTGTCTAA | -0.0808
ACGCAAAG | -0.12
AAAGTCCT | -0.113
AGCCCACG | -0.0576
ACAACAGC | 0.122
CTGCTTAC | -0.0697
AAAGGGCA | 0.204
CAACTTCA | 0.0223
TGGGAACA | -0.0869
ATAAGACA | 0.0525
CGCGTATC | 0.142
ATTCCGGG | -0.16
AGGTAATC | -0.0107
AGTTCTGA | 0.0581
GGCCATAA | -0.0556
AATACATC | 0.0214
CCGGATAC | -0.108
AGCGGCTC | 0.388
AATCTGGA | 0.0917
AATACGAC | -0.0582
CGAGAGAG | -0.0625
CGAACGAG | -0.126

Sequence | PBM E-score
GGCGGCCC | 0.0299
AACATTCA | -0.088
GTCGTTGA | -0.0793
CCATTAGG | -0.209
CGACTCAG | -0.156
ATAATCTG | -0.0477
AGGATCAA | 0.0724
ACCCCACC | -0.0383
CAAGATCA | 0.101
AAATCCCT | -0.0485
CTTTCTAA | 0.17
ATACCCCA | -0.0574
ACTTACTA | -0.164
ATTGTGAA | -0.0259
CAAAGGCG | 0.129
TGGGGACA | -0.294
GAGTCTCA | -0.189
AGACATTA | -0.123
CAGCCCCA | -0.0412
CCTATGAA | -0.0412
GGATACAA | -0.00421
GCAAGGTA | -0.00106
CATTATTA | 0.117
ACCTCACA | -0.131
CACCGCGG | 0.146

Sequence | PBM E-score
ACCTCGAG | 0.0578
CCTTAAAC | 0.00058
CGGACCGA | 0.0676
TCACAAAA | 0.111
CTTGTGTC | 0.045
CCCGGGAC | -0.277
TGGATAAA | 0.0755
ACGTATCC | -0.239
ACACACCC | -0.168
CGTTGTCC | 0.00282
AGCACGGA | 0.114
CCCTGGAA | -0.287
CCAACTCG | -0.152
ACGGGTTA | -0.118
ATGCCAAG | 0.00136
CCCGAGGC | 0.0336
CTATGGCC | -0.108
CCTGCCGA | -0.135
GTACACTA | 0.0132
TCCATAGA | 0.0976
AAGTTACA | 0.0542
ACAAATGG | 0.0385
CTGTACTA | 0.156
CTACACGC | -0.263
AGCTATCC | -0.233

Sequence | PBM E-score
TAGTGTGA | -0.0256
AGTCGCGA | 0.064
CATACCAC | -0.0115
CCGCGTGC | 0.329
CGTAACTC | -0.115
AGGTTCAT | -0.15
AGAAGACC | -0.162
GATTAAAA | 0.186
CACATGGC | 0.302
CGAATGGA | 0.0462
TGTTTTAA | 0.154
CATACACA | 0.0768
AATTAAAA | 0.142
ACGTTTAC | -0.0777
ATTCCCGA | -0.198
GGGGCGGA | -0.197
TACACTCA | 0.195
ACCCACCA | -0.132
CATCCGGA | -0.27
ATGTCGAA | 0.0831
CTAAAACA | 0.103
AGACTCAA | -0.0693
CATTAGAG | -0.0957
CTTAGAAC | 0.0906
CCTCGGTC | -0.284

Sequence | PBM E-score
AATGAATG | 0.0827
AAGTGGCG | 0.28
CTGAAGGA | -0.208
CATTCTGG | -0.0532
CTCTAACA | -0.00243
CTCTAGTA | 0.00502
AATTCTTC | 0.0152
ACCACGAT | 0.0192
GCTCGTGA | -0.144
AGTAGTCC | -0.272
GTCCACCA | -0.0303
GCGTGAGC | 0.193
CAGTTTGG | -0.128
CCTCTTTC | -0.249
CATTACAC | 0.143
GGTTCTAA | 0.125
CGATATGC | 0.104
TAAGGAGA | -0.077
ACCGCTAT | -0.152
ATCCACCG | 0.0474
CCCTTGAA | -0.0509
ATGTTTCG | 0.147
